Data reported in PubChem BioAssay AID624417 (National Center for Advancing Translational Sciences (NCATS), 2012).
Values joined by “and” are separate entries in the source; they are usually repeats but may differ in a detail not shown here. Equal entries are not always repeated. The campaign covered roughly 410,000 compounds. About 6,400 (1.6%) were called active. The shares of active, inactive and inconclusive entries below differ from those in the screen. The call rests on the fitted dose curve; in most records, active means well fitted inhibition curve with a large enough effect; inconclusive means small, poorly fitted or top-dose-only effect; inactive means no such curve, though single readings can be large or run the other way. Potencies beside an inconclusive call are fits to weak or partial responses and may not hold up.

Molecular target: Glucagon-like peptide 1 receptor (Homo sapiens) (UniProt P43220)
Assay: qHTS of GLP-1 Receptor Inverse Agonists (Inhibition Mode); further: nearly all actives have a fitted effect of over 55% in size
Conditions: HEK293 GLP-1R CRE-luciferase, luminescence, 24 h, GLP-1R form is constitutively active; activity change, negative = inhibition: at 38.3 µM (top of the series) unless noted
Summary of the method: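 Inverse agonists were sought by their lowering of basal cAMP reporter luciferase output in HEK293 cells stably carrying constitutively active human GLP-1R, after 24 h compound treatment.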
On the % scale 0 is the no-effect control and ±100 the full control effect; potency means the concentration at half of the fitted maximal effect; tags describe the fitted curve by direction and shape.

Sequence of UniProt P43220 (P43220 whole entry, looked up): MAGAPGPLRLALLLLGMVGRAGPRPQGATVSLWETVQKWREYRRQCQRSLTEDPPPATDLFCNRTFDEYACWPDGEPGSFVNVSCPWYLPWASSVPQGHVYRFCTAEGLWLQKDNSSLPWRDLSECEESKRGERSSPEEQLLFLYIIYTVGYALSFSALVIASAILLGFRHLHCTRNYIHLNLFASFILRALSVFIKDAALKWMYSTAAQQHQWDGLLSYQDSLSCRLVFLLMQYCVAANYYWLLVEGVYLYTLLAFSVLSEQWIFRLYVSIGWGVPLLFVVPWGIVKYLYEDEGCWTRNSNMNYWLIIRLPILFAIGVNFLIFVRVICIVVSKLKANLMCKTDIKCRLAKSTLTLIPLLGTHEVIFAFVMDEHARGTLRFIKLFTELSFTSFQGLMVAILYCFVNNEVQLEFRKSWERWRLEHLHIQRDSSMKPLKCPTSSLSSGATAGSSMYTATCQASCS

Potency, inconclusive:
OCC1(Cc2cccc(C(F)(F)F)c2)CCN(Cc2cc(F)cc(F)c2)CC1 1.58 µM [inhibitor, full curve, poor fit], CCN(C(=O)COc1nc(C)cc(C)c1C#N)c1ccccc1 20 µM [inhibitor, single point], O=S(=O)(Nc1ccccc1O)c1ccc(-c2ccccc2)cc1 11.2 µM [inhibitor, partial curve], CC(C)(C)OC(=O)N1CCC(c2c(C(=O)NCCc3ccccc3)cnn2-c2ccc(F)cc2F)CC1 14.1 µM [inhibitor, single point], O=C(NNc1nc(Nc2ccccc2)nc(N2CCOCC2)n1)Nc1ccc(Cl)cc1 11.2 µM [inhibitor, partial curve, poor fit], COc1ccc(OCc2cc(C(=O)NCCN3CCCc4ccccc43)no2)c(Cl)c1 11.2 µM [inhibitor, single point], O=C(Nc1ccc2c(c1)CCC2)c1ccc(F)c(S(=O)(=O)N2CCOCC2)c1 6.31 µM [inhibitor, partial curve], Cn1cccc1Cc1nnc(SCC(=O)NCc2ccc(F)cc2)n1-c1ccc(F)cc1 2.82 µM [inhibitor, partial curve, poor fit], CCC(C)(C)NC(=O)C(c1cccc(OC)c1OC)N(CCC(C)C)C(=O)CCC(=O)Nc1cc(C)on1 (centres undefined) 10 µM [inhibitor, partial curve, poor fit], COc1cc(/C=N/NC(=S)Nc2cccc(C(=O)O)c2)ccc1O 1.12 µM [inhibitor, full curve, poor fit], CC(=O)N1c2ccc(S(=O)(=O)Nc3ccc(Cl)cc3C)cc2CC1C (centres undefined) 10 µM [inhibitor, single point], Cn1cc([C@]2(O)C(=O)N(c3ccccc3)c3ccccc32)c2ccccc21 10 µM [inhibitor, partial curve, poor fit], Oc1c(Cl)cc(Cl)cc1C(C#Cc1ccccc1)N1CCOCC1 (centres undefined) 10 µM [inhibitor, partial curve], O=[N+]([O-])c1ccc(-c2csc(Nc3ccccc3)[n+]2Cc2ccccc2)cc1 28.2 µM [inhibitor, single point], CC(C)Oc1cc(F)ccc1-c1cc(C(=O)Nc2ccc(F)cc2)[nH]n1 28.2 µM [inhibitor, single point], CCOc1ccc(C)cc1S(=O)(=O)n1nc(C)cc1C 10 µM [inhibitor, single point], CCOc1cccc(C(=O)Nc2nc3c(s2)CC(C(C)(C)C)CC3)c1 (centres undefined) 1.78 µM [inhibitor, full curve, poor fit], Cc1ccc(-n2cc(-c3ccc([N+](=O)[O-])cc3)[nH]c2=S)c(C)c1 10 µM [inhibitor, partial curve, poor fit], COc1ccc(N(CC(=O)N2CCN(c3ccc(F)cc3)CC2)S(=O)(=O)c2c(C)noc2C)cc1 8.91 µM [inhibitor, partial curve, poor fit] and 8.91 µM [inhibitor, partial curve], CN1\C(=C/C=C/C=C/C=[N+](C)C)C(C)(C)c2ccccc21 28.2 µM [inhibitor, single point], CCOc1ccccc1Nc1cc(C)nc2ccc(C)cc12 8.91 µM [inhibitor, partial curve, poor fit], O=C(Nc1nc2ccc(SC(F)F)cc2s1)c1ccc(NS(=O)(=O)c2ccc(F)c(F)c2)cc1 7.08 µM [inhibitor, partial curve, poor fit], CC(C)(C)c1cc(C(F)(F)F)nc(SCCCNC(=O)c2ccco2)n1 11.2 µM [inhibitor, partial curve, poor fit], O=C(NCc1ccco1)c1ccc2c(c1)N(Cc1ccc(F)cc1)C(=O)c1ccccc1S2(=O)=O 28.2 µM [inhibitor, single point], COc1ccc(C(O)c2nc3ccccc3n2C(C)C)cc1 (centres undefined) 10 µM [inhibitor, partial curve], Cc1cc(C)cc(C(=O)Nc2nc3ccccc3[nH]2)c1 20 µM [inhibitor, single point], CCCCC(CC)c1nnc(NC(=O)c2cccs2)s1 (centres undefined) 28.2 µM [inhibitor, single point], COCCCNC(=S)N1CCCN(c2nc3cc(C)ccc3cc2C#N)CC1 28.2 µM [inhibitor, single point], O=c1c2cn[nH]c2nc(SCc2c(F)cccc2F)n1-c1ccc(Cl)cc1 15.8 µM [inhibitor, single point]

Potency, active:
Cc1sc(-c2cc3c([nH]c2=O)CC(c2ccccc2)CC3=O)nc1-c1ccc(Cl)cc1 (centres undefined) 1.26 µM, O=C(Cc1ccccc1)Nc1cccc(NC(=O)c2cccs2)c1 12.6 µM

Activity change, negative = inhibition, inactive:
Cn1c(=O)oc2cc(S(=O)(=O)N3CCC(C(=O)N4CCN(c5ccccc5F)CC4)CC3)ccc21 0.0784%, Cc1cc(C)cc(N2C(=O)CSC2c2cccs2)c1 (centres undefined) -26%, Cc1ccc(CCNC(=O)c2c(C)oc3ncn(CC(C)C)c(=O)c23)cc1 -14.3%, Cc1cccc(CN2CCN(C3CN(Cc4cn(Cc5cc(C)cc(C)c5)nn4)S(=O)(=O)C3)CC2)c1 (centres undefined) -3.31%, CC(C)CNC(=O)NC1(C(F)(F)F)Oc2ccccc2O1 26.6% [at 7.66 µM], CCN(C(=O)CSc1nnc(-c2cccc(F)c2)n1N)c1c(N)n(Cc2ccccc2)c(=O)[nH]c1=O 3.82%, O=c1c2cc(N3CCOCC3)ccc2[nH]c(=S)n1Cc1cccc(Cl)c1 -7.41%, COc1ccc(CCNC(=O)c2ccc3c(c2)OCCO3)cc1 -7.79%
